# Source: the supplement of paper PMC4604168 (melanoma cell lines)
# The other results are listed elsewhere or left out. Single values are uncertain, as repeats are few or missing.
# Legend:
# Experiment in all cases: cell count relative to DMSO control; melanoma cells; higher = more viable cells
# Conditions in all cases: library dose: low library concentration; 72 h
# MZ2-MEL = system: MZ2-MEL
# MeWo = system: MeWo
# RPMI7951 = system: RPMI7951
# RVH-421 = system: RVH-421
# SkMel28 = system: SkMel28
# SkMel2 = system: SkMel2
# SkMel30 = system: SkMel30
# SkMel5 = system: SkMel5
# UACC257 = system: UACC257
# UACC62 = system: UACC62
# 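Note: cell number obtained by counting DAPI-stained nuclei in high-throughput microscope images with image analysis software, screen run in 1,536-well plates.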
Structure (SMILES),cell count (MZ2-MEL) [%],cell count (MeWo) [%],cell count (RPMI7951) [%],cell count (RVH-421) [%],cell count (SkMel28) [%],cell count (SkMel2) [%],cell count (SkMel30) [%],cell count (SkMel5) [%],cell count (UACC257) [%],cell count (UACC62) [%]
"CC(C)C[C@H](NC(=O)[C@H](Cc1ccccc1)NC(=O)c1cnccn1)B(O)O [Bortezomib] + CC(C)(C)c1cnc(CSc2cnc(NC(=O)C3CCNCC3)s2)o1 [SNS-032] (first compound 0.001 µM, partner dose 0.01 µM)",70.6,90,53.4,74.5,91.7,97.5,105,116,90,86.7
"Cn1c(=O)n(-c2ccc(C(C)(C)C#N)cc2)c2c3cc(-c4cnc5ccccc5c4)ccc3ncc21 + Oc1cc(-c2nc(-c3ccccc3)[nH]c2-c2ccncc2)ccc1Cl [L779450] (first compound 0.004 µM, partner dose 0.2 µM)",72.8,71.3,76.2,72.4,55.7,83.3,92,94.3,81.6,74.4
"COc1ccc(C2=N[C@@H](c3ccc(Cl)cc3)[C@@H](c3ccc(Cl)cc3)N2C(=O)N2CCNC(=O)C2)c(OC(C)C)c1 [Nutlin-3] + O=C(Nc1ccccc1)c1cc([N+](=O)[O-])ccc1Cl [GW9662] (first compound 0.1 µM, partner dose 2 µM)",100,93,107,90.1,88.9,100,88.5,96.9,110,92.9
"Cc1cc(Nc2cc(N3CCN(C)CC3)nc(/C=C/c3ccccc3)n2)n[nH]1 + NC(=O)Nc1cc(-c2cccc(F)c2)sc1C(=O)N[C@H]1CCCNC1 [AZD7762] (first compound 0.04 µM, partner dose 0.02 µM)",102,92.7,80.3,112,108,103,112,101,127,82.8
"Cc1cn(-c2cc(NC(=O)c3ccc(C)c(Nc4nccc(-c5cccnc5)n4)c3)cc(C(F)(F)F)c2)cn1 [nilotinib] + CC(C)(C)c1cnc(CSc2cnc(NC(=O)C3CCNCC3)s2)o1 [SNS-032] (first compound 0.2 µM, partner dose 0.01 µM)",95.4,119,90.3,72.1,99.5,97.1,92.1,99.2,91.7,86.1
"COc1ccc(C2=N[C@@H](c3ccc(Cl)cc3)[C@@H](c3ccc(Cl)cc3)N2C(=O)N2CCNC(=O)C2)c(OC(C)C)c1 [Nutlin-3] + N#Cc1c(O)c2c(-c3ccc(-c4ccccc4O)cc3)csc2[nH]c1=O [A769662] (first compound 0.1 µM, partner dose 2 µM)",98.4,107,99.7,85.8,91.8,90.7,96.7,103,92.4,95.4
"Cc1cc(Nc2cc(N3CCN(C)CC3)nc(/C=C/c3ccccc3)n2)n[nH]1 + Cn1cncc1[C@@](N)(c1ccc(Cl)cc1)c1ccc2c(c1)c(-c1cccc(Cl)c1)cc(=O)n2C [tipifarnib] (first compound 0.04 µM, partner dose 0.01 µM)",98.5,89.4,97.9,108,83.1,84.7,67,105,69.1,59.7
"Cc1cc(Nc2cc(N3CCN(C)CC3)nc(/C=C/c3ccccc3)n2)n[nH]1 + COc1cc(N2CCC(N3CCN(C)CC3)CC2)ccc1Nc1ncc(Cl)c(Nc2ccccc2S(=O)(=O)C(C)C)n1 [NVP-TAE684] (first compound 0.04 µM, partner dose 0.08 µM)",98.6,85,93.5,92.9,89.5,84.8,88.3,79,72.1,86.6
"Cc1cc(Nc2cc(N3CCN(C)CC3)nc(/C=C/c3ccccc3)n2)n[nH]1 + c1cc(-c2cnn3cc(-c4ccc(OCCN5CCCCC5)cc4)cnc23)ccn1 [Dorsomorphin] (first compound 0.04 µM, partner dose 0.4 µM)",98.1,93.6,102,104,103,99.9,95.5,73.6,92.7,102
"Cc1cc(Nc2cc(N3CCN(C)CC3)nc(/C=C/c3ccccc3)n2)n[nH]1 + COc1cc(Nc2ncc(F)c(Nc3ccc4c(n3)NC(=O)C(C)(C)O4)n2)cc(OC)c1OC [Tamatinib] (first compound 0.04 µM, partner dose 0.4 µM)",85,86.4,87.3,90.6,87.4,92.5,91,87.3,59.6,92.2
"Cn1c(=O)n(-c2ccc(C(C)(C)C#N)cc2)c2c3cc(-c4cnc5ccccc5c4)ccc3ncc21 + CC1(C)NC(=O)N(c2ccc([N+](=O)[O-])c(C(F)(F)F)c2)C1=O [nilutamide] (first compound 0.004 µM, partner dose 1 µM)",97.5,84.7,88.1,99.1,56,94.3,84.6,87.9,92.4,80.6
"COc1ccc(C2=N[C@@H](c3ccc(Cl)cc3)[C@@H](c3ccc(Cl)cc3)N2C(=O)N2CCNC(=O)C2)c(OC(C)C)c1 [Nutlin-3] + COc1cc2ncnc(Nc3ccc(Oc4ccccc4)cc3)c2cc1OC [SrcI1] (first compound 0.1 µM, partner dose 2 µM)",90.8,92,107,114,69.5,101,81.2,94.3,81.4,96.1
"Cc1cc(Nc2cc(N3CCN(C)CC3)nc(/C=C/c3ccccc3)n2)n[nH]1 + N#Cc1c(O)c2c(-c3ccc(-c4ccccc4O)cc3)csc2[nH]c1=O [A769662] (first compound 0.04 µM, partner dose 2 µM)",95.7,100,109,116,96.2,95.7,102,87.9,108,86.3
"CC(C)C[C@H](NC(=O)[C@H](Cc1ccccc1)NC(=O)c1cnccn1)B(O)O [Bortezomib] + CCCCCCCCCCCC1=C(O)C(=O)C=C(O)C1=O [Embelin] (first compound 0.001 µM, partner dose 1.2 µM)",97.7,99.3,100,122,127,97.7,106,96.5,137,101
"Cc1cn(-c2cc(NC(=O)c3ccc(C)c(Nc4nccc(-c5cccnc5)n4)c3)cc(C(F)(F)F)c2)cn1 [nilotinib] + CCCCCCCCCCCC1=C(O)C(=O)C=C(O)C1=O [Embelin] (first compound 0.2 µM, partner dose 1.2 µM)",95.4,110,103,119,98.8,93.1,97.6,97.2,122,112
"COc1ccc(C2=N[C@@H](c3ccc(Cl)cc3)[C@@H](c3ccc(Cl)cc3)N2C(=O)N2CCNC(=O)C2)c(OC(C)C)c1 [Nutlin-3] + CC(C)(C)c1cnc(CSc2cnc(NC(=O)C3CCNCC3)s2)o1 [SNS-032] (first compound 0.1 µM, partner dose 0.01 µM)",97,95.3,97.8,79.1,78.9,88.5,105,96.8,62.8,54.3
"Cn1c(=O)n(-c2ccc(C(C)(C)C#N)cc2)c2c3cc(-c4cnc5ccccc5c4)ccc3ncc21 + O=c1cc(-c2cccc3c2Sc2ccccc2S3)oc(N2CCOCC2)c1 [KU55933] (first compound 0.004 µM, partner dose 1 µM)",110,82.9,92.4,99.3,72.1,98.2,81.8,111,93,90.5
"CC(C)C[C@H](NC(=O)[C@H](Cc1ccccc1)NC(=O)c1cnccn1)B(O)O [Bortezomib] + Cc1ccc(NC(=O)c2cccc(N(C)C)c2)cc1NC(=O)c1ccc(O)cc1 [ZM336372] (first compound 0.001 µM, partner dose 2 µM)",43.1,86.6,75.5,52.1,93.3,114,95.9,85.7,65.8,69.2
"Cn1c(=O)n(-c2ccc(C(C)(C)C#N)cc2)c2c3cc(-c4cnc5ccccc5c4)ccc3ncc21 + CCN(CC)CCCCNc1ncc2cc(-c3cc(OC)cc(OC)c3)c(NC(=O)NC(C)(C)C)nc2n1 [PD173074] (first compound 0.004 µM, partner dose 0.1 µM)",92.7,83.1,98.4,95.4,82.6,88.5,75.7,111,117,70.8
"CC(C)C[C@H](NC(=O)[C@H](Cc1ccccc1)NC(=O)c1cnccn1)B(O)O [Bortezomib] + c1cc(-c2cnn3cc(-c4ccc(OCCN5CCCCC5)cc4)cnc23)ccn1 [Dorsomorphin] (first compound 0.001 µM, partner dose 0.4 µM)",70.3,90.8,95.5,53.9,97.8,111,73.3,89.8,68.8,62.3
"COc1ccc(C2=N[C@@H](c3ccc(Cl)cc3)[C@@H](c3ccc(Cl)cc3)N2C(=O)N2CCNC(=O)C2)c(OC(C)C)c1 [Nutlin-3] + COc1ccc(-c2ccc3c(N4CCOCC4)nc(N4C[C@@H](C)O[C@@H](C)C4)nc3n2)cc1CO [KU0063794] (first compound 0.1 µM, partner dose 0.02 µM)",94.3,104,88.1,85.1,94.4,86,72.2,92.5,71.2,83.8
